From the supplement of paper PMC12217912
The other results are listed elsewhere or left out. The full chains were built here from the parent and the listed change. Inactive controls read about 0.05.

B1: TEV protease; numbered along this chain (parent)
chain: MGESLFKGPRDYNPISSSICHLTNESDGHTTSLYGIGFGPFIITNKHLFRRNNGTLVVQSLHGVFKVKDTTTLQQHLVDGRDMIIIRMPKDFPPFPQKLKFREPQREERICLVTTNFQTKSMSSMVSDTSCTFPSGDGIFWKHWIQTKDGQCGSPLVSTRDGFIVGIHSASNFTNTNNYFTSVPKNFMELLTNQEAQQWVSGWRLNADSVLWGGHKVFMVKPEEPFQPVKEATQL

Variants of: B1
Assay: raw area under fraction-flipped curve 0-4 h after induction (AUC4h, not background-subtracted), DNA-recorder readout of cleavage of the substrate (dimensionless); higher = more cleavage of the substrate by the protease variant
Details: temperature: 34 °C; time window: 0-4 h after rhamnose induction
Method: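 In vivo DNA recorder in E. coli TOP10(DE3) ΔrhaA at 34 °C. Each TEVp single-site mutant (parent TEVp 0) is paired with a single-site variant of the 7-mer TEVs (canonical ENLYFQ|S). The substrate sits between flexible linkers in a Bxb1-sfGFP-TEVs-SsrA fusion, so cleavage stabilises Bxb1 and speeds flipping of a recombination array, read by NGS. The value is the raw area under the fraction-flipped curve over 0-4 h after rhamnose induction (AUC4h), with ≥20 reads per time point. It is not background-subtracted; inactive controls average about 0.047.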
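Note: Bxb1 expression induced with 0.2% (w/v) L-rhamnose at OD600 near 0.5, cultures sampled hourly, flipped fraction per protease–substrate barcode pair counted by paired-end Illumina sequencing.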

K98M
area with substrate CNLYFQS: 0.0671
area with substrate DNLYFQS: 0.0805
area with substrate GNLYFQS: 0.0704
area with substrate HNLYFQS: 0.0555
area with substrate KNLYFQS: 0.0762
area with substrate LNLYFQS: 0.0665
area with substrate QNLYFQS: 0.0701
area with substrate SNLYFQS: 0.0548
area with substrate TNLYFQS: 0.0698
area with substrate WNLYFQS: 0.0577
area with substrate YNLYFQS: 0.0654

F101K
area with substrate CNLYFQS: 0.0454
area with substrate DNLYFQS: 0.065
area with substrate PNLYFQS: 0.0659

F92Y
area with substrate CNLYFQS: 0.0646
area with substrate DNLYFQS: 0.0889
area with substrate GNLYFQS: 0.0569
area with substrate HNLYFQS: 0.0532
area with substrate PNLYFQS: 0.0569
area with substrate SNLYFQS: 0.0691
area with substrate TNLYFQS: 0.0788
area with substrate WNLYFQS: 0.0794

F92E
area with substrate CNLYFQS: 0.0588
area with substrate DNLYFQS: 0.0648
area with substrate HNLYFQS: 0.0555
area with substrate INLYFQS: 0.0566
area with substrate LNLYFQS: 0.0417
area with substrate NNLYFQS: 0.0516
area with substrate PNLYFQS: 0.0555
area with substrate SNLYFQS: 0.067
area with substrate TNLYFQS: 0.0554
area with substrate VNLYFQS: 0.0577
area with substrate WNLYFQS: 0.0726

T114A
area with substrate CNLYFQS: 0.0804
area with substrate DNLYFQS: 0.0711
area with substrate FNLYFQS: 0.0972
area with substrate GNLYFQS: 0.079
area with substrate HNLYFQS: 0.0505
area with substrate KNLYFQS: 0.0603
area with substrate LNLYFQS: 0.0665
area with substrate MNLYFQS: 0.0746
area with substrate PNLYFQS: 0.0561
area with substrate QNLYFQS: 0.0751
area with substrate SNLYFQS: 0.0618
area with substrate TNLYFQS: 0.064
area with substrate VNLYFQS: 0.079
area with substrate WNLYFQS: 0.0535

T114W
area with substrate CNLYFQS: 0.0645
area with substrate DNLYFQS: 0.105
area with substrate FNLYFQS: 0.0528
area with substrate GNLYFQS: 0.0716
area with substrate HNLYFQS: 0.0721
area with substrate INLYFQS: 0.0639
area with substrate KNLYFQS: 0.078
area with substrate LNLYFQS: 0.0646
area with substrate NNLYFQS: 0.0728
area with substrate PNLYFQS: 0.0566
area with substrate RNLYFQS: 0.0829
area with substrate WNLYFQS: 0.0382

T114K
area with substrate CNLYFQS: 0.0801
area with substrate DNLYFQS: 0.0778
area with substrate HNLYFQS: 0.0738
area with substrate KNLYFQS: 0.0772
area with substrate TNLYFQS: 0.0689

F117R
area with substrate CNLYFQS: 0.0507
area with substrate DNLYFQS: 0.0783
area with substrate HNLYFQS: 0.0629
area with substrate QNLYFQS: 0.0674
area with substrate TNLYFQS: 0.0686

Q118M
area with substrate CNLYFQS: 0.072
area with substrate DNLYFQS: 0.107
area with substrate HNLYFQS: 0.0632
area with substrate KNLYFQS: 0.0622
area with substrate LNLYFQS: 0.0747
area with substrate SNLYFQS: 0.0634
area with substrate VNLYFQS: 0.0482
area with substrate WNLYFQS: 0.046

Q118V
area with substrate CNLYFQS: 0.0644
area with substrate DNLYFQS: 0.0484
area with substrate FNLYFQS: 0.0697
area with substrate HNLYFQS: 0.0566
area with substrate LNLYFQS: 0.0298
area with substrate MNLYFQS: 0.0833
area with substrate PNLYFQS: 0.0778
area with substrate WNLYFQS: 0.0639
area with substrate YNLYFQS: 0.0698
